Results taken from PubChem BioAssay AID588855 (National Center for Advancing Translational Sciences (NCATS), 2011).
In all, about 410,000 compounds went through this assay and about 5,000 (1.2%) were called active. The shares of active, inactive and inconclusive entries below differ from those in the screen. Calls follow the shape of the dose curve; as a rule, active = well fitted inhibition curve with a large enough effect; inconclusive = small, poorly fitted or top-dose-only effect; inactive = no such curve, though single readings can be large or run the other way. A potency beside an inconclusive call is a rough fit, not a confirmed value.

Test: qHTS for Inhibitors of TGF-b; also: nearly all actives have a fitted effect of over 65% in size
Conditions: HepG2 CAGA-GFP TGF-b/SMAD3 reporter, GFP fluorescence, 18 h, TGF-beta stimulated, 500 pg/mL final; series mostly up to 46.1 µM
Procedure, shortened: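 First, reporter cells (HEPG2 CAGA-GFP) rested 2 h at 37 degrees C. Next, compounds were pinned in and TGF-beta added to 500 pg/mL final. After 18 h, GFP was imaged per cell and summed per well.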
Potency is read from the fitted curve at half-maximal effect; tags tell the direction and shape of the fitted curve.

SMILES	Potency
COCCn1c(C(=O)N2CCCC2)cc2c1C[C@H]1CN(C(=O)c3ccccc3)[C@@](Cc3ccc(F)cc3)(C(=O)OC)[C@@H]21	inconclusive: 35.5 µM [inhibitor, single point]
CC(C)c1ccc(S(=O)(=O)c2nnn3c2nc(NCc2cccs2)c2sccc23)cc1	inconclusive: 3.55 µM [inhibitor, partial curve]
CC(C)CC(=O)NC(=S)Nc1ccc(CN2CCOCC2)cc1	inactive
Nc1nc(N)c2cc(Sc3ccc(Cl)cc3)ccc2n1	inconclusive: 35.5 µM [inhibitor, single point]
CCCCc1c(C)nn(-c2nnc3c4ccccc4n(CC)c3n2)c1C	inactive
CN(C)CCn1c2ccccc2c2nc3ccc([N+](=O)[O-])cc3cc21	inconclusive: 5.01 µM [inhibitor, partial curve, poor fit]
CCOc1ccc(C2C(C(N)=O)=C(C)Nc3nc(-c4ccc(OC)cc4)nn32)cc1 (centres undefined)	inactive
CC(C)c1ccc(CN2CCC2(C)C(=O)Nc2ccc3c(c2)OCO3)cc1 (centres undefined)	inconclusive: 35.5 µM [inhibitor, single point]
COc1ccc(-c2nnc(OCc3ccccc3)c3ccccc23)cc1	inconclusive: 15.8 µM [inhibitor, single point]
O=C(Cc1cccc(C(F)(F)F)c1)Nc1ccc(S(=O)(=O)N2CCCC2)cc1	inactive
COc1ccccc1C(=O)Nc1cccc(OCc2cc(=O)n3c4c(sc3n2)CCCC4)c1	inactive
Cc1ccc(CC2C(=O)N(c3ncccn3)C(=O)C2C)cc1 (centres undefined)	inconclusive: 3.98 µM [inhibitor, single point]
COC(=O)Cc1c(C)c2ccc(OCC(=O)N3CCCC3)c(C)c2oc1=O	inactive
COc1ccccc1-c1cc(NC(C)=O)c2ncc(-c3cccc(C(F)(F)F)c3)n2c1	inconclusive: 20 µM [inhibitor, single point]
CCc1nc(N)nc(N)c1-c1ccc(Cl)cc1	inconclusive: 35.5 µM [inhibitor, single point]
c1ccc(-c2csc(Nc3nc(N4CCOCC4)nc(N4CCOCC4)n3)n2)cc1	inactive
Cc1cc(C)cc(N(C(=O)Cc2cccs2)C(C(=O)NC2CCCCC2)c2ccccn2)c1 (centres undefined)	inactive
CC(=O)c1cc2c(cc1NS(=O)(=O)c1ccc(C)cc1)OCCO2	inactive
O=C1N/C(=N/NC(=O)c2cccc3ccccc23)S/C1=C\c1ccccc1OCc1ccccc1	inconclusive: 35.5 µM [inhibitor, single point]
Fc1ccc(NC(=S)NCc2ccccc2Cl)cc1	inconclusive: 10 µM [inhibitor, single point]
O=C1c2ccccc2C2=Nc3ccccc3SC(c3cccc(F)c3)C12 (centres undefined)	inconclusive: 22.4 µM [inhibitor, single point]
CCOC(=O)c1ccc(NC(=O)c2nn(C)cc2Br)cc1	inactive
CCN(C(=O)CSc1nc(-c2ccccc2)no1)c1cccc(C)c1	inconclusive: 1.26 µM [inhibitor, full curve, poor fit]

SMILES	Potency
Cc1ccc(CCc2nnc(SCC(=O)Nc3cccc(Cl)c3)n2-c2ccccc2)o1	inactive
Cc1cnc(NC(=O)c2cc(S(=O)(=O)N(C)C)ccc2N2CCCC2)s1	inconclusive: 35.5 µM [inhibitor, single point]
O=C(CSc1nccn1Cc1ccc(F)cc1)NC1CCCC1	inconclusive: 2.82 µM [inhibitor, partial curve, poor fit]
O=S(=O)(Nc1ccc(-c2ccc(N3CCOCC3)nn2)cc1)c1ccc(Cl)c(Cl)c1	inconclusive: 17.8 µM [inhibitor, single point]
O=C(NCc1ccccc1)C1Cc2c(-c3cccc(F)c3)ccnc2O1 (centres undefined)	inconclusive: 35.5 µM [inhibitor, single point]
Cc1ccc(CN(C(=O)COc2cccc(Cl)c2)c2ccccn2)o1	inconclusive: 1 µM [inhibitor, partial curve, poor fit]
COc1cccc(CNCCc2c[nH]c3ccccc23)c1OCc1ccccc1F	inconclusive: 35.5 µM [inhibitor, single point]
CC(C)CC1C(=O)N(Cc2cn(CC3CCCCC3)nn2)CCS(=O)(=O)N1Cc1ccc(-c2ccc(Cl)cc2)cc1 (centres undefined)	inconclusive: 28.2 µM [inhibitor, single point]
COc1cc(O)ccc1-c1nc2ccc(Br)cn2c1Nc1ccccc1C	inconclusive: 35.5 µM [inhibitor, single point]
CC(NC(=S)Nc1ccc(OC(F)F)c(Cl)c1)C(C)(C)C (centres undefined)	active: 12.6 µM
CN1CCOc2c1cnn(CCO)c2=O	inconclusive: 31.6 µM [inhibitor, single point]
Cc1nc(NC(=O)c2ccc(Cl)cc2)sc1Cc1ccc2c(c1)OCO2	inconclusive: 12.6 µM [inhibitor, single point]
CN1CCN(c2ncnc3c2ncn3[C@H]2CN(C)C[C@@H](CO)O2)CC1	inactive
CCOC(=O)C1CCN(C(=O)c2ccc3c(=O)n4nc(Nc5ccccc5)sc4nc3c2)CC1	inconclusive: 22.4 µM [inhibitor, single point]
O=C(Nc1cc(F)ccc1F)C1CCCN1S(=O)(=O)c1cccc2nsnc12 (centres undefined)	inconclusive: 28.2 µM [inhibitor, single point]
CC(Oc1ccc(Br)cc1)C(=O)Nc1ccc(S(=O)(=O)N(C)C2CCN(C)CC2)cc1 (centres undefined)	inconclusive: 35.5 µM [inhibitor, single point]
O=C1c2cc(Br)ccc2OC2C=CC=CC12 (centres undefined)	inconclusive: 15.8 µM [inhibitor, single point]
COc1ccc(CCNC(=O)C(=O)NCC2CCCN2S(=O)(=O)c2ccccc2)cc1OC (centres undefined)	inactive
COc1cc(Cl)ccc1OCc1cc(C(=O)N2C[C@]3(C)C[C@H]2CC(C)(C)C3)no1	inconclusive: 35.5 µM [inhibitor, single point]
COc1cccc(CNC(=O)CN2C(=O)CSc3ccc(S(=O)(=O)N4CCOCC4)cc32)c1	inactive
O=C(Nc1cc(Cl)ccc1O)c1snnc1-c1ccccc1	inconclusive: 28.2 µM [inhibitor, partial curve, poor fit]
COc1ccc(C(=O)c2cc([N+](=O)[O-])ccc2N2CCCC2)cc1	inactive
CC1(C)SC(=S)N(/N=C/c2ccc(O)cc2)C1N(O)C(=O)Nc1ccc([N+](=O)[O-])cc1 (centres undefined)	inconclusive: 25.1 µM [inhibitor, single point]

SMILES	Potency
C[C@@H]1CN([C@@H](C)CO)C(=O)Cc2cc(NS(=O)(=O)c3ccccc3)ccc2O[C@H]1CN(C)S(C)(=O)=O	inconclusive: 5.62 µM [inhibitor, single point]
CC(=O)Nc1ccc(NC(=O)CSCc2ccccc2Cl)cc1	inactive
COC(=O)c1sc2cccc(F)c2c1S(=O)(=O)NC(C)c1ccccc1 (centres undefined)	inactive
COc1cc(OC)c(CN2CCC(Cc3ccccc3)CC2)cc1Br	inconclusive: 31.6 µM [inhibitor, single point]
COc1cc(NC(=O)CNC(c2ccccc2)c2ccccc2)cc(OC)c1OC	inconclusive: 35.5 µM [inhibitor, single point]
Cc1cccc(NC(=O)c2ccc(F)c(S(=O)(=O)NCc3ccc4c(c3)OCO4)c2)c1	inconclusive: 35.5 µM [inhibitor, single point]
Cc1ccn2c(Nc3ccc4c(c3)OCO4)c(-c3ccc(C)o3)nc2c1	inconclusive: 35.5 µM [inhibitor, single point]
Cc1ccc(C(=O)NCCSc2c[nH]c3ccccc23)cc1C	inconclusive: 35.5 µM [inhibitor, single point]
CCOc1ccc(N(CC)C(=O)c2cc3c(s2)-c2ccc(Cl)cc2SC3)cc1	inconclusive: 2.24 µM [inhibitor, partial curve, poor fit]
CCn1cc(CN2CCc3c([nH]c4ccccc34)C2c2ccc(F)c(OC)c2)c(C)n1 (centres undefined)	inconclusive: 31.6 µM [inhibitor, single point]
C=CCC1(CC=C)CCCN1C(=O)c1ccc2oc(CCCC)nc2c1	inconclusive: 35.5 µM [inhibitor, single point]
Cn1c(NC(=O)c2ccc(Cl)cc2Cl)cc(=O)n(C)c1=O	inconclusive: 15.8 µM [inhibitor, single point]
Cc1cc(C)cc(NC(=O)CSc2oc(-c3cccs3)nc2S(=O)(=O)c2ccc(Br)cc2)c1	inactive
O=C(c1cnsn1)N1CCC(CO)(Cc2cccc(F)c2)CC1	inactive
CCOC(=O)c1ccc(NC(=O)C2CCN(S(=O)(=O)Cc3ccccc3)CC2)cc1	inactive
COc1ccc(C)cc1-n1nnnc1SCc1nc(N)nc(N(C)C)n1	active: 11.2 µM
O=S(=O)(Nc1ccc(S(=O)(=O)N2CCCCC2)cc1)c1ccc(Br)s1	inconclusive: 17.8 µM [inhibitor, single point]
CC1NC(=O)c2cc3ccccc3cc2-n2c1nc1cc(Cl)ccc1c2=O (centres undefined)	inactive
COc1cc(/C=N\N=C2/SC(CC(=O)O)C(=O)N2c2ccc(O)cc2)ccc1O (centres undefined)	inactive
C1CCC(C(CC2CCCCN2)C2CCCCC2)CC1 (centres undefined)	inconclusive: 35.5 µM [inhibitor, single point]
FC(F)(F)Sc1ccc(NC(=S)NCc2ccccc2)cc1	inconclusive: 20 µM [inhibitor, single point]
NC(=O)c1ccc(NC(=O)c2cc(S(=O)(=O)N3CCCCC3)ccc2N2CCOCC2)cc1	inactive
O=C(CCNc1ccc(F)cc1)c1ccco1	inconclusive: 15.8 µM [inhibitor, partial curve, poor fit]
